# Results taken from the RNAGym collection of RNA variant scans (doi:10.7554/elife.90254).
# The source gives no read counts; variants with many changes may rest on few reads.
# B1: LINE1-mini (parent)
# chain: GGCAGAGCUCAACACAGCGUGGCAAAGUGGCUGUGGCUAGACUGCC
# Variants of: B1
# Experiment: self-cleavage, relative activity (ratio to wild type); higher = more cleavage; in vitro, sequencing; the parent is a self-cleaving ribozyme
row,Variant,self-cleavage
1,C3U A4G G7U U32G,0.07
2,C3G G33A A39C,0.03
3,C3G G35A G36A,0.14
4,C3G U20A A39U,0.06
5,C3U A4C A6U A25C U38G C45A,0.02
6,C3G G5U C13U G35U G44U,0.26
7,C3G G17U C37A C45A C46G,0.02
8,C3G C37A A41G,0.31
9,C3U A11U A12U,0.06
10,C3U A4U G19C G35U C37A,0.08
11,C3G G27U G29C C42U C45U,0.01
12,C3U A4G G22A A39U,0.18
13,C3G G22A U34C C46G,0.08
14,C3U A6U A16U G40U C42U,0.12
15,C3G G21C G22A A26U C45U,0.19
16,C3U A12C C37A,0.03
17,C3U A4G C8G A12U G17U G30U,0.07
18,C3G G7C C13U U20G C42U,0.02
19,C3G G27C G33U,0.15
20,C3G G17A C23A U34A C37G,0.02
21,C3G G21U G33U,0.23

row,Variant,self-cleavage
1,C3U A4C A16C G30U C46U,0.05
2,C3G U20C U32C,0.09
3,C3G G5U C8A G22U C46U,0.15
4,C3G G21C C45U,0.1
5,C3G G21C C45A,1.38
6,C3G G5U C8G C15A A25G,0.02
7,C3G G29U G33U,0.08
8,C3G U9G A14G G17C,0.37
9,C3U A4C G19A G33U G35A,0.1
10,C3U A6U A12C G17A C45G,0
11,C3G G17C G19A G35C G36C,0.03
12,C3U A4G C10U G40C,0.05
13,C3U A12C A24U,0.02
14,C3G U20C C42U,0.11
15,C3U A11C A12C A16G G33A G44U,0.01
16,C3G G29C G40C,0.02
17,C3G G17U G19U U38G,0.03
18,C3G U9C C31G G33U,0.01
19,C3U A4U A6G C10U U32G,0.04
20,C3G G22A C31G,0.09
21,C3G U28C A41C,0.01

row,Variant,self-cleavage
1,C3G U32G U38A C42A,0.11
2,C3G G5C C15A G19A U32A C37G,0.01
3,C3U A11C G19U G21A,0.15
4,C3G U9G C10G C13G A25U,0.02
5,C3G C31U G44U,0.09
6,C3U A11U C15A C18A C45U,0.01
7,C3G G7U A26U,0.02
8,C3G U32A A41G,0.04
9,C3G G27A G30A,0.2
10,C3G G22A C23A G30A G40A,0.09
11,C3G G21U C31G,0.04
12,C3U A6U U38A,0.19
13,C3G G17C C46G,0.2
14,C3U A4G U34C G36A C46U,0.04
15,C3U A6G U38G C46A,0.01
16,C3G G7C U43C C46G,0.04
17,C3G G17U G22A G35A C46A,0.53
18,C3G G36C A39G C46U,0.23
19,C3G C23G U43C,0.18
20,C3U A4G U43G C46U,0.02
21,C3G G19U G27A U43A,0.05

row,Variant,self-cleavage
1,C3G C23A U28A,0.08
2,C3G C18G G44C,0.71
3,C3U A6G G7U U28A,0.05
4,C3U A11C A24U G33U,0.01
5,C3G G17A G33U U34A C45G C46U,0.04
6,C3U A4U U9G C15A,0.15
7,C3G G19A U28G G40U,0.04
8,C3G G7U G29U,0.48
9,C3U A6U U34A U43A,0.07
10,C3G G5A G7A G35U A41G,0.21
11,C3G G17A C46A,0.21
12,C3U A4U A12G G35U G36C,0.07
13,C3G G5U C18A U32C,0.02
14,C3U A4C A11C G22U G44U,0
15,C3U A4U C13A C15G G19A G36C G44C,0.01
16,C3U A4G G21A G29A G36U C37A,0.03
17,C3U A4G U20A U32G G35U,0.07
18,C3U A4C U9C G22A A26G G30U C42A,0.01
19,C3U A4C G35A A39C G40C U43A,0.08
20,C3G C31G G33A U34C,0.09
21,C3U A4U A6G U9C U20G G29C G33A C42U,0.01
